Measured values taken from PubChem BioAssay AID1508642 (National Center for Advancing Translational Sciences (NCATS), 2021).
Among all 43,000 compounds or so, about 200 (0.47%) were called active. Inconclusive results (about 12%) are left out. The call rests on the fitted dose curve; in most records, active means well fitted cell-killing curve with a large enough effect; inconclusive means small, poorly fitted or top-dose-only effect, or effect the other way; inactive means flat fitted curve, though single readings scatter. The list shows a part of the results.

Assay: Cell viability qHTS assay in S16 Pmp22-F2sN cells; further: nearly all actives have a fitted effect of over 65% in size
Settings: S16 Pmp22-F2sN Schwann cells (luciferase reporters placed in the Pmp22 gene) viability, CellTiter-Glo, 24 h; series mostly up to 57.5 µM; activity change, negative = cytotoxicity: at the top concentration
Summary of the method: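 Luminescence from CellTiter-Glo, read by CCD camera after a 15 min room-temperature incubation, served as the viability signal. Reporter Schwann cells (S16 Pmp22-F2sN) had been treated with pin-transferred compounds for 24 h at 37C.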
On the % scale 0 is the no-effect control and ±100 the full control effect.

SMILES | activity change, negative = cytotoxicity
CCOc1cc(C2C(C(=O)OC)=C(C)NC3=C2C(=O)c2ccccc23)ccc1O (configuration not stated) | inactive: -20.5%
Cc1ccc(C(C)C)c(OCC(=O)Nc2c(C(=O)c3ccccc3)oc3ccccc23)c1 | inactive: 4.39%
Cc1cccc(/C=C/c2onc(C)c2S(=O)(=O)N2CCC(C(=O)N3CCC(C)CC3)CC2)c1 | inactive: 18.8%
CCc1ccccc1NC(=O)C1=CC(c2ccc(OC)c(OC)c2)=NS(=O)(=O)N1C | inactive: -3.09%
CCOC(=O)c1ccc(-n2c(N)c(C(=O)OC)c3nc4ccccc4nc32)cc1 | inactive: 3.09%
Cc1cccc(C)c1OCC(=O)NCC1(N2CCOCC2)CCCCC1 | inactive: -7.49%
CC1CCCN(c2csc3ccc(F)cc3c2=O)C1 (configuration not stated) | inactive: -6.64%
COc1ccc(OC(=O)c2nc(SCc3ccc(C)cc3)ncc2Cl)cc1 | inactive: 11.9%
Cc1ccc(NC(=O)Cn2c(=O)n(Cc3ccccc3)c(=O)c3c(C)c(C)sc32)c(C)c1 | inactive: 21%
O=C(CN1C(=O)COc2ccc(S(=O)(=O)N3CCCCC3)cc21)NCc1ccc(F)cc1 | inactive: 12.7%
CCCOc1ccc(C(=O)Nc2cccc(-c3nc4ccccc4[nH]3)c2)cc1 | inactive: -13.1%
Cc1ccc(-c2nc(C)c(CCNC(=O)C(=O)Nc3ccc4c(c3)OCCO4)s2)cc1 | inactive: 23.2%
CCc1nn2c(=O)cc(COC(=O)c3ccccc3NC(=O)COc3ccccc3C)nc2s1 | inactive: 40.2%
COc1ccc(-c2nn3c(-c4ccc(OC)cc4)nnc3c3ccccc23)cc1 | inactive: 0.0963%
CC1(C)C(=O)N(CC(=O)Nc2ccc(Cl)cc2)c2ccccc21 | inactive: -3.83%
CCC(C)NC(=O)c1cc2c(Cl)nc3ccc(C)cc3c2s1 (configuration not stated) | inactive: 1.86%
CCc1ccc(C2C(C(=O)Nc3ccccc3)=C(C)Nc3c(C(=O)Nc4ccc(C)cc4)cnn32)cc1 (configuration not stated) | inactive: -15.6%
CCc1ccc(S(=O)(=O)c2cn(C)c3cc(N4CCCCC4C)c(F)cc3c2=O)cc1 (configuration not stated) | inactive: 2.54%
COc1cc(OC)cc(-c2nc3n(n2)C(c2ccccc2F)C(C(=O)Nc2cccnc2)=C(C)N3)c1 (configuration not stated) | inactive: -19.4%
Cc1ccc(S(=O)(=O)NCC(c2ccc(N(C)C)cc2)N2CCCC2)cc1 (configuration not stated) | inactive: 3.71%
Cc1cc(C)cc(NC(=O)C2CCCN(c3nnc(C)c4c(C)n(-c5ccccc5)nc34)C2)c1 (configuration not stated) | inactive: 8.93%
O=C(c1ccco1)N(Cc1cccnc1)c1nc2ccc(F)cc2s1 | inactive: -4.71%
Cc1ccc(-n2c(CCC(=O)O)ccc2-c2cccs2)cc1C | inactive: -0.658%
CCOC(=O)C1CCN(C(c2ccccc2)c2c(O)cc(C)n(Cc3ccco3)c2=O)CC1 (configuration not stated) | inactive: 9.4%
O=C(CSc1nccn1Cc1ccco1)Nc1cccc(F)c1 | inactive: -16.5%
COc1ccc(OCC(=O)Nc2nnc(S(=O)(=O)N3CCCCCC3)s2)cc1 | inactive: 3.6%
CCCCc1ccc(NC(=O)c2cc3c(=O)n4ccccc4nc3n2C)cc1 | inactive: 17.6%
